Data as given in PubChem BioAssay AID485281 (National Center for Advancing Translational Sciences (NCATS), 2010).
Hit rate of the full screen: of about 350,000 compounds, about 260 (0.074%) were called active. This list was built around the results that the source calls inconclusive (neither active nor inactive); the mix of calls is not that of the screen. The call rests on the fitted dose curve; in most records, active means well fitted inhibition curve with a large enough effect; inconclusive means small, poorly fitted or top-dose-only effect; inactive means no such curve, though single readings can be large or run the other way. A potency beside an inconclusive call is a rough fit, not a confirmed value.

target: Ferritin light chain (Equus caballus) (UniProt P02791); assay: qHTS Assay for Identification of Novel General Anesthetics; details: apoferritin/1-aminoanthracene competitive binding, fluorescence; activity change, negative = displacement: at 77.5 µM (top of the series); further: nearly all actives have a fitted effect of over 20% in size
Chain of UniProt P02791 (P02791 whole entry, looked up): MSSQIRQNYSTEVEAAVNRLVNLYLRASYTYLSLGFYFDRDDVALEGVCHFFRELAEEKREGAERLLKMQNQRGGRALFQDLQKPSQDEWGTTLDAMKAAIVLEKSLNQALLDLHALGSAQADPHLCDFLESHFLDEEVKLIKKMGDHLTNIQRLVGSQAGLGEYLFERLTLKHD
How it was run: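 Horse-spleen apoferritin (10 uM) was mixed with 50% saturated 1-aminoanthracene in PBS, exposed to compounds for 10 min at room temperature, and read for fluorescence (ex 380 nm, em 535 nm). Competitive displacement was fitted with a four-parameter Hill equation.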
On the % scale 0 is the no-effect control and ±100 the full control effect; potency means the concentration at half of the fitted maximal effect; tags describe the fitted curve by direction and shape.

Activity change, negative = displacement, inactive:
COc1ccc(Nc2nc(C(=O)N3CCc4ccccc4C3)cs2)cc1 -11.9%, CC(=O)n1cc(CO)c2ccccc21 -6.04%, Cc1nn(C)cc1/C=C/C(=O)c1cccs1 -4.36%, COc1cc(/C=C/c2nc(C#N)c(N3CCN(C)CC3)o2)cc(OC)c1OC 85.5%, CCN1CCc2c(sc(N)c2C#N)C1 -6.27%, CCO/C=C/C(O)(CNC(=O)c1ccc(C(C)(C)C)cc1)C(F)(F)F (configuration not stated) -17.3%, O=C(COc1ccc2c(c1)OCO2)Nc1nccs1 4.5%, CCOc1ccc2cc(-c3nnc(Nc4ccc(C)cc4)s3)c(=O)oc2c1 -0.222%, Cc1c(/C=N/NC(=O)c2ccccc2O)c2ccccn2c1C(=O)c1ccc(F)cc1 -2.83%, CC(C)Oc1ccc(CNC(=O)Cn2c(-c3cccs3)cc3ccccc32)cc1 75.7%, O=C(CSc1nnc2ccccn12)N1CCc2ccccc21 -4.9%, CCOC(=O)C(NC(=O)c1ccccc1Cl)(Nc1ccc(C(F)(F)F)cc1)C(F)(F)F (configuration not stated) -8.65%, COc1ccc(OC)c(-c2noc(N3CCN(c4cccc(C)c4C)CC3)n2)c1 -8.8%, O=C(N1CCCCC1)N1CCN(S(=O)(=O)c2ccccc2)CC1 -0.788%, CN(C(=O)NC(=O)C1=C(N2CCOCC2)/C(=C/c2ccccc2)CC1)S(C)(=O)=O 516%, CCc1cc(C(=O)OC)c(NC(=O)c2cc(Br)cs2)s1 -4.26%, CS(=O)(=O)N(CC(=O)Nc1ccc2c(c1)OCO2)Cc1ccc(Cl)cc1 3.89%, O=C(c1ccccc1)N1CCN(C(=O)N2CCOCC2)CC1 -4.39%, CCOC(=O)c1c(C)n(-c2ccccc2)c2ccc(OC(=O)c3ccccc3NC(=O)C(C)(C)C)cc12 -5%, COc1ccccc1NS(=O)(=O)c1cc2c(cc1Cl)NC(=O)CO2 -6.46%, O=C(Cc1cccc2ccccc12)NC(=S)Nc1cccc(C(=O)O)c1 -3.25%, CC1=C/C(=N\NC(=S)NCc2ccccc2)CC1 -11.2%

Potency, inconclusive:
O=C(c1ccc2c(c1)N(Cc1ccccc1)C(=O)c1ccccc1S2)N1CCCC1 35.5 µM [inhibitor, partial curve], CSc1ccccc1OCc1cc(C(=O)NC(C)Cc2cccc(C)n2)no1 (configuration not stated) 39.8 µM [inhibitor, single point], CCCSc1nsc(NC(=O)c2cccnc2OCC)n1 25.1 µM [inhibitor, partial curve], O=C(c1ccccc1)c1ccc(N2CCCC2)cc1 39.8 µM [inhibitor, single point], CCOC(=O)C1(CCOC)CCN(Cc2ccc(C(=O)OC)cc2)CC1 28.2 µM [inhibitor, partial curve], COc1cccc(NC(=O)CN(C)C(C)C(=O)Nc2ccc(S(=O)(=O)N3CCOCC3)cc2)c1 (configuration not stated) 35.5 µM [inhibitor, partial curve], CSc1cccc(NC(=O)C2CCN(c3nc4ccccc4[nH]3)CC2)c1 56.2 µM [inhibitor, single point], CCCCN(C)C(=O)c1cccc(OC2CCN(CC(C)(C)C)CC2)c1 25.1 µM [inhibitor, partial curve], S=C(c1ccc(Br)cc1)N1CCN(Cc2ccccc2)CC1 14.1 µM [inhibitor, partial curve], CCOc1ccc(C(=O)c2cn(CC(=O)Nc3ccc(Cl)cc3)c3cc4c(cc3c2=O)OCO4)cc1 8.91 µM [inhibitor, partial curve], C=CCc1cc(C=O)cc(OC)c1OCc1ccc(Cl)cc1 15.8 µM [inhibitor, partial curve], CN(C(=O)c1c(Cl)cnn1C)C12CC3CC(CC(C3)C1)C2 14.1 µM [inhibitor, partial curve], CC(C)c1ccc(NC(=S)NCc2ccc3c(c2)OCO3)cc1 12.6 µM [inhibitor, partial curve], COc1ccc(/C=C/C(=O)c2ccc(Cl)s2)cc1O 35.5 µM [inhibitor, partial curve], N#Cc1nc(COc2cccc(Cl)c2)oc1NCc1ccncc1 25.1 µM [inhibitor, partial curve], O=C(CCc1ccccc1)Nc1ccccc1F 25.1 µM [inhibitor, partial curve], CCN1CCN(CC(=O)Nc2ccc(Cl)c(Cl)c2)C(=O)C1=O 35.5 µM [inhibitor, single point], COc1ccccc1/C=N/NC(=O)CCSc1ccccc1 39.8 µM [inhibitor, partial curve], CC(=O)c1cccc(NC(=S)NCCc2ccc(F)cc2)c1 31.6 µM [inhibitor, single point], CC(=O)N(C)c1ccc(N=Nc2c(C)[nH]n(C(N)=S)c2=O)cc1 39.8 µM [inhibitor, single point], O=C(COC(=O)c1ccc2ncsc2c1)NC(=O)NCc1ccccc1 25.1 µM [inhibitor, partial curve], COc1ccccc1NS(=O)(=O)CC12CCC(CC1=O)C2(C)C (configuration not stated) 28.2 µM [inhibitor, single point], Cc1ccc2occ(C(=O)c3ccco3)c(=O)c2c1 31.6 µM [inhibitor, single point], Cn1cnnc1SCC(=O)Nc1ccc(Oc2ccccc2)cc1 35.5 µM [inhibitor, single point], CC1CCN(CC(=O)Nc2cccc(C(=O)Nc3cccc(C(F)(F)F)c3)c2)CC1 44.7 µM [inhibitor, single point], Cc1ccc(C(C[N+](=O)[O-])Sc2ccc(N)cc2)cc1 (configuration not stated) 28.2 µM [inhibitor, partial curve], O=C1[C@H]2[C@@H](C(=O)N1c1cc(Cl)cc(Cl)c1)[C@]1(C(=O)Nc3ccccc31)N1CCC[C@@H]21 20 µM [inhibitor, partial curve], CCCC(=O)c1ccc(N2CCCCCC2)c(F)c1 28.2 µM [inhibitor, partial curve], CC1(C)CC(=O)C2=C(C1)Oc1ncn(Cc3ccco3)c(=N)c1C2c1ccccc1 (configuration not stated) 35.5 µM [inhibitor, partial curve], COc1ccc(C2C(C#N)=C(SCC(=O)Nc3ccc(C)cc3)NC3=C2C(=O)CC(C)(C)C3)cc1 (configuration not stated) 10 µM [inhibitor, partial curve], COc1cc(CNCCc2ccccc2F)ccc1OCc1ccc(Cl)nc1 20 µM [inhibitor, partial curve], Cc1c(N/C=C/C(=O)c2ccc(Cl)cc2)c(=O)n(-c2ccccc2)n1C 15.8 µM [inhibitor, partial curve], N#Cc1ccccc1OCC(=O)N1CCc2ccccc2C1 35.5 µM [inhibitor, single point], CCOc1ccc(CCNC(=O)c2ccc3ccccc3n2)cc1OCC 35.5 µM [inhibitor, single point], O=C1CSc2ccccc2N1Cc1ccc(F)cc1 28.2 µM [inhibitor, partial curve], Cc1ccc(NCC(=O)Nc2ccc(Br)cc2)cc1F 20 µM [inhibitor, partial curve], Oc1ccc(Oc2ccc3c(C(F)(F)F)cc(C(F)(F)F)nc3n2)cc1 31.6 µM [inhibitor, partial curve], O=C(COC(=O)c1c2c(nc3ccccc13)CCCC2)Nc1ccc2c(c1)OCO2 22.4 µM [inhibitor, partial curve], O=C(c1c(F)cccc1F)N(Cc1cccs1)C1CCCC1 28.2 µM [inhibitor, single point], CCOC(=O)c1ccccc1NC(=O)CSc1nnc(COc2ccccc2)n1CC 20 µM [inhibitor, partial curve], COc1cccc(C(=O)COC(=O)C(C)N2C(=O)c3ccccc3C2=O)c1 (configuration not stated) 14.1 µM [inhibitor, partial curve], O=C(COC(=O)Cn1cnc2ccccc2c1=O)Nc1ccc(Cl)cc1 39.8 µM [inhibitor, single point], CCCc1cc(=O)[nH]c(SCC(=O)Nc2sc3c(c2C#N)CCCC3)n1 39.8 µM [inhibitor, single point], CCOC(=O)Cn1cnc2sc3c(c2c1=O)CCC3 39.8 µM [inhibitor, partial curve], COc1ccc(C(=O)Nc2ccc(N3CCCC3)cc2)cc1OC 22.4 µM [inhibitor, partial curve], Cc1ccc(NC(=O)C2CC(=O)N(c3ccc4c5c(cccc35)CC4)C2)cc1 (configuration not stated) 14.1 µM [inhibitor, partial curve], CCn1c(-c2ccccc2)c(C(=O)CCl)c2ccccc21 28.2 µM [inhibitor, partial curve], COCc1cc(C)nc(SCC[N+](C)(C)CC(=O)Nc2cccc(C(F)(F)F)c2)c1C#N 11.2 µM [inhibitor, partial curve], Cn1ncc(Br)c1C(=O)NC1CCCCCCC1 22.4 µM [inhibitor, partial curve]

Potency, active:
O=C(CCC(=O)c1cccs1)OCC(=O)c1ccc(Cl)s1 28.2 µM
